About 1,900 (2.5%) of roughly 76,000 compounds were called active. The inconclusive results got no clear call from the source; some entries with a clear call stand among them for comparison. The call rests on the fitted dose curve; in most records, active means well fitted inhibition curve with a large enough effect; inconclusive means small, poorly fitted or top-dose-only effect; inactive means flat fitted curve, though single readings scatter. A potency beside an inconclusive call is a rough fit, not a confirmed value.
Molecular target: Luciferin 4-monooxygenase (Photinus pyralis) (UniProt P08659)
Chain of UniProt P08659 (P08659 whole entry, looked up): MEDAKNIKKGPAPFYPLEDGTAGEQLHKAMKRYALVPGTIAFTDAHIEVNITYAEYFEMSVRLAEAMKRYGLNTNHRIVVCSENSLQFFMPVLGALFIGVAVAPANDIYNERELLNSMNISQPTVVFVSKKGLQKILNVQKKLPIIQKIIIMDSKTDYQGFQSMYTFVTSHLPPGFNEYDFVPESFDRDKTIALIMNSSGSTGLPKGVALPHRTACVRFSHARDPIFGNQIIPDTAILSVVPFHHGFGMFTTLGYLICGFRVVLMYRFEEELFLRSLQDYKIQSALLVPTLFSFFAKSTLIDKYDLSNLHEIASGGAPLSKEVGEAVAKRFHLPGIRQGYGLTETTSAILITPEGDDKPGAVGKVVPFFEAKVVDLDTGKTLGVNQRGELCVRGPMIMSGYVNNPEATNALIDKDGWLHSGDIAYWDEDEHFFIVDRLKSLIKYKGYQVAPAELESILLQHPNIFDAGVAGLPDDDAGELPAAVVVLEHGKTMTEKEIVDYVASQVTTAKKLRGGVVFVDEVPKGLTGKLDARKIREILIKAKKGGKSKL
Assay: Firefly luciferase inhibition profiling of diverse chemical library using quantitative high-throughput screening; further: nearly all actives have a fitted effect of over 65% in size
Details: purified P. pyralis luciferase, luminescence, biochemical; series mostly up to 115 µM
In short: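 FLuc 10nM, D-luciferin 10uM, ATP 10uM, Mg acetate 10mM, Tris acetate pH 7.5, Tween/BSA; cpd qHTS; enzyme added last; CCD luminescence.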
Potency means the concentration at half of the fitted maximal effect; tags describe the fitted curve by direction and shape.

Row | SMILES | Potency
1 | Cc1nnn2c(C(=O)Nc3ccc(F)cc3)cccc12 | inconclusive: 20 µM [inhibitor, full curve]
2 | N#Cc1cccc(CN2Cc3[nH]cnc3C[C@H]2c2nc(-c3ccccc3)no2)c1 | active: 63.1 µM
3 | O=C(Nc1ccc(F)cc1F)C1(CCO)CCN(c2ncccn2)C1 (stereo not drawn) | inactive
4 | COc1ccc(-c2ncc3c(n2)OCCN(CC2CC2)C3=O)cc1 | active: 1.26 µM
5 | C[C@@H]1C(=O)O[C@H]2[C@H]1CC[C@@]1(C)Cc3sc(NC(=O)c4ccncc4)nc3[C@@H](C)[C@H]21 | active: 0.501 µM
6 | Fc1ccc2nc([C@H]3CCN(Cc4cccs4)C3)[nH]c2c1 | active: 39.8 µM
7 | O=c1c2c(CO)c(-c3ccccc3)nn2ccn1CCOc1ccccc1 | inconclusive: 11.2 µM [inhibitor, full curve]
8 | CCOCC(=O)Nc1nn(-c2cccc(F)c2)c2cccc(N3CCOC3=O)c12 | inconclusive: 89.1 µM [inhibitor, single point]
9 | CCOc1ccc(C(=O)NC2CCCN(c3cc(-c4ccccc4)[nH]n3)C2)cc1 (stereo not drawn) | inconclusive: 10 µM [inhibitor, full curve]
10 | CC(C)(O)CCc1cccc(C(=O)NCCCc2ccccn2)c1 | inconclusive: 35.5 µM [inhibitor, partial curve, poor fit]
11 | Cc1nn(-c2ccc(C(C)(C)C)cc2)c(C)c1[C@@H]1C=C[C@@H](NC(=O)NC(C)C)C1 | active: 14.1 µM
12 | O=C(NC1CCCN(c2cc(-c3ccc(F)cc3)[nH]n2)C1)c1nccc2ccccc12 (stereo not drawn) | inconclusive: 31.6 µM [inhibitor, partial curve]
13 | Cc1ccc(Cn2ccn3nc4c(c3c2=O)CCCC4)cc1 | inconclusive: 44.7 µM [inhibitor, partial curve]
14 | CC(=O)Nc1ccc(NC(=O)c2cc3n(n2)CC(c2ccc(Br)cc2)OC3)cc1 (stereo not drawn) | inconclusive: 39.8 µM [inhibitor, partial curve]
15 | CN(C)c1nccnc1OC1CCN(C(=O)c2ccoc2)C1 (stereo not drawn) | active: 39.8 µM
16 | COc1ccc(-c2noc([C@@H]3Cc4nc[nH]c4CN3Cc3cccs3)n2)cc1 | active: 70.8 µM
17 | Cc1c(C(=O)N(Cc2cccc(OCC3CCOC3)c2)Cc2ccccn2)[nH]c2ccc(Cl)cc12 (stereo not drawn) | inactive
18 | O=C([C@@H]1C[C@H](Oc2ccccc2)CN1C(=O)c1cc2ccccc2[nH]1)N1CCOCC1 | inconclusive: 20 µM [inhibitor, partial curve, poor fit]
19 | CCCNc1cc(N2CCC(CCC(=O)NCc3cccc(OC)c3)CC2)ncn1 | inconclusive: 39.8 µM [inhibitor, partial curve]
20 | CC(=O)Nc1ccc(CN2CCN(Cc3ccccc3)C(CCO)C2)cc1 (stereo not drawn) | inactive
21 | CC1CCC2(CC1)NC(=O)N(CC(=O)Nc1ccc3c(c1)OCCO3)C2=O (stereo not drawn) | inconclusive: 44.7 µM [inhibitor, partial curve]
22 | COc1ccc(-c2cc3c(=O)n(CCNC(=O)c4ccc(OC)c(OC)c4)ccn3n2)cc1 | inconclusive: 2.51 µM [inhibitor, full curve]

Row | SMILES | Potency
23 | Cc1ccc2nc(CN3CCCC(CO)(CC4CC4)C3)cn2c1 (stereo not drawn) | inconclusive: 39.8 µM [inhibitor, full curve]
24 | CCc1cccc(NC(=O)C2CCN(C(=O)c3ncn4c3COC(c3ccccc3)C4)CC2)c1 (stereo not drawn) | active: 3.55 µM
25 | O=C(O)Cn1ccc2cc(OCC3CCN(C(=O)OC4CCCC4)CC3)cnc21 | inconclusive: 89.1 µM [inhibitor, partial curve]
26 | Cc1ccc(CNC(=O)CCC2CCCN(S(=O)(=O)c3ccc(F)cc3)C2)cc1 (stereo not drawn) | inconclusive: 50.1 µM [inhibitor, partial curve]
27 | CCn1ccnc1CN(C)Cc1cn(Cc2ccccc2)nc1-c1ccc2c(c1)OCO2 | inactive
28 | O=C(NC[C@H]1O[C@H](Cc2cc(-c3ccc(F)cc3)on2)CC[C@@H]1O)C1CCC1 | inconclusive: 126 µM [inhibitor, single point]
29 | C[S+](=O)([O-])CCn1ncc2cc(OCC3CCN(Cc4cccs4)CC3)ccc21 | active: 63.1 µM
30 | O=C(CC[C@@H]1CNC(=O)[C@@H]2C[C@H](NC(=O)Nc3ccccc3)CN12)NCc1ccccc1 | inactive
31 | COc1ccc(-c2cc(N3CCCC(NC(=O)c4ccc(C#N)cc4)C3)n[nH]2)cc1 (stereo not drawn) | inconclusive: 14.1 µM [inhibitor, full curve]
32 | CCOc1ccc(-c2cc3c(=O)n(CCNC(=O)c4ccc(C#N)cc4)ccn3n2)cc1 | inconclusive: 7.08 µM [inhibitor, partial curve]
33 | O=C(c1ccc(F)cc1)N1CCC(c2nn(Cc3ccccc3)c(=O)[nH]2)CC1 | inactive
34 | CCN1c2cc(C(=O)Nc3ccc4c(c3)OCCO4)ccc2C(=O)N2CCCC21 (stereo not drawn) | active: 5.01 µM
35 | COc1ccccc1NC(=O)N1CC[C@H](c2nnc(-c3ccc(C)cc3)o2)C1 | inconclusive: 56.2 µM [inhibitor, partial curve, poor fit]
36 | COc1cccc(-c2ncc3c(n2)OCCN(c2ccccc2)C3=O)c1OC | inconclusive: 63.1 µM [inhibitor, partial curve]
37 | c1ccc(Nc2cc3c(cn2)CN(Cc2cccs2)CCN3)cc1 | inconclusive: 7.08 µM [inhibitor, full curve]
38 | Cc1ccc(C(=O)NC2CCN(c3cnn(Cc4ccccc4)c(=O)c3)CC2)s1 | inactive
39 | Cc1cc(OC2CN(C(=O)c3ccccn3)C2)ccc1F | inconclusive: 112 µM [inhibitor, partial curve]
40 | Cc1oc(C(O)c2cccc(O)c2)nc1C(=O)Nc1ccc2[nH]c(=O)oc2c1 (stereo not drawn) | inconclusive: 70.8 µM [inhibitor, partial curve]
41 | O=C(NC1CCCN(c2cc(-c3ccccc3)[nH]n2)C1)c1ccccc1 (stereo not drawn) | inconclusive: 39.8 µM [inhibitor, partial curve]
42 | COCCN1C(=O)c2ccccc2C(C(=O)Nc2nc3ccccc3s2)C12CCCCC2 (stereo not drawn) | inconclusive: 28.2 µM [inhibitor, full curve]
43 | Cc1ccc(NC(=O)C2CCN(C(=O)c3ncn4c3COC(c3ccccc3)C4)CC2)cc1 (stereo not drawn) | active: 2 µM
